According to PubChem BioAssay AID1458 (National Center for Advancing Translational Sciences (NCATS), 2008):
Out of some 210,000 compounds screened, about 5,900 (2.8%) were called active. Inconclusive results, whose numbers are uncertain, are shown with a selection of clear calls. Calls come from the whole dose curve; as a rule, active = well fitted activation curve with a large enough effect; inconclusive = small, poorly fitted or top-dose-only effect; inactive = no such curve, though single readings can be large or run the other way. Potencies of inconclusive entries are doubtful fits and often do not repeat.

Experiment: qHTS Assay for Enhancers of SMN2 Splice Variant Expression; note: nearly all actives have a fitted effect of over 55% in size; for activity change, positive = activation: % of control where 0% means no effect
Conditions: HEK293 SMN2-luciferase splicing reporter, luminescence, 30-36 h; activity change, positive = activation: at 46.1 µM (top of the series)
Outline: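 HEK293 cells carry an SMN2 minigene-luciferase reporter in which exon 7 inclusion puts luciferase in frame. Cells were seeded at 2000 cells/well, attached for 10-12 hours, then exposed to compounds for 30-36 hours at 37C before ONE-Glo luminescence.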
Potency is the fitted concentration of half-maximal effect; tags give direction and shape of the fitted curve.

Q: For `COCCn1c(C)cc(C(=O)CSc2nc3ccccc3c(=O)[nH]2)c1C`, which Potency is on record?
A: inconclusive: 2 µM [activator, partial curve]

Q: For `C[C@@H](C(=O)NCc1ccccc1)N1C(=O)C2CC=CCC2C1=O` (stereo not given in full), which Potency is on record?
A: inconclusive: 31.6 µM [activator, single point]

Q: With `COc1ccc(-c2cn(-c3ccc(C)cc3)c(=O)n2CC(=O)Nc2ccc(OC)c(OC)c2)cc1` as the compound, how does the Potency read?
A: inconclusive: 0.0141 µM [activator, full curve, poor fit]

Q: With `Cc1ccsc1/C=N/NC(=O)Nc1ccccc1` as the compound, how does the Potency read?
A: active: 15.8 µM

Q: For `Cc1cccc(C)c1NC(=O)CS(=O)(=O)c1nc(-c2ccc(Cl)cc2)cn1-c1ccccc1`, which Potency is on record?
A: inconclusive: 22.4 µM [activator, single point]

Q: Which Potency does the source give for `O=C(NCCSc1ccccc1)c1cccnc1` here?
A: inconclusive: 2.82 µM [activator, single point]

Q: With `COc1ccc(C(=O)CC(=O)c2ccccc2O)cc1OC` as the compound, how does the Potency read?
A: inconclusive: 22.4 µM [activator, single point]

Q: Which Potency does the source give for `CCCn1c(-c2ccc(F)cc2)nc2c(N3CCN(C)CC3)nc(C)nc21` here?
A: inactive

Q: For `O=C(N1CCCC1)C12CC3CC(C1)CC(C(=O)N1CCCC1)(C3)C2`, which Potency is on record?
A: inconclusive: 6.31 µM [activator, single point]

Q: With `C/C(=N\Nc1ncc(Cl)cc1Cl)c1ccc(C#N)cc1` as the compound, how does the Potency read?
A: inactive

Q: For `COC(=O)C1=C(CSc2nncn2C)NC(=O)NC1c1cc(C)ccc1C` (stereo not given), which Potency is on record?
A: inactive

Q: Which Potency does the source give for `CC1=NN(C(N)=S)C(=O)C1N=Nc1cccc2ccccc12` (stereo not given) here?
A: inconclusive: 15.8 µM [activator, single point]

Q: For `COc1cc(C)c(/C=C/C(C)=C/C=C/C(C)=C/C(=O)O)c(C)c1C`, which Potency is on record?
A: inconclusive: 3.16 µM [activator, partial curve, poor fit]

Q: For `Cc1nnc(SCCCn2c(N3CCCCC3)nc3c2c(=O)[nH]c(=O)n3C)s1`, which Potency is on record?
A: inconclusive: 0.0316 µM [activator, full curve, poor fit]

Q: Which Potency does the source give for `COc1cccc(-c2nnc3sc(-c4cccs4)nn23)c1` here?
A: inconclusive: 31.6 µM [activator, single point]

Q: For `CC(=O)NC12CC3CC(C1)CC(C(=O)OCC(=O)NC(=O)c1cccn1C)(C3)C2`, which Potency is on record?
A: inconclusive: 0.0398 µM [activator, full curve, poor fit]

Q: Which Potency does the source give for `COc1ccccc1C(=O)Nc1ccc(N2CCCCC2)cc1` here?
A: active: 17.8 µM

Q: Which Potency does the source give for `O=C(Nc1ccc(N2CCOCC2)cc1N1CCOCC1)c1ccco1` here?
A: inconclusive: 0.0032 µM [activator, full curve, poor fit]

Q: For `CCN(CC(=O)NCc1ccc(Cl)cc1)C(=O)c1ccc(S(=O)(=O)N(C)C)cc1`, which Potency is on record?
A: inconclusive: 5.62 µM [activator, single point]

Q: With `Clc1ccc(-n2ncc3c(NCc4cccs4)ncnc32)cc1` as the compound, how does the Potency read?
A: inactive

Q: With `Cc1cccn2c(=O)c3cc(C(=O)N4COCC4(C)C)sc3nc12` as the compound, how does the Potency read?
A: inconclusive: 11.2 µM [activator, partial curve]

Q: Which Potency does the source give for `COc1cccc(OCc2nc3ccccc3c(=O)n2N)c1` here?
A: inconclusive: 11.2 µM [activator, partial curve]

Q: For `CCCn1c(N)c(CC)c(=O)[nH]c1=O`, which Potency is on record?
A: inconclusive: 31.6 µM [activator, single point]

Q: Which Potency does the source give for `COC(=O)[C@H](Cc1ccccc1)NC(=O)O[C@@H]1C(=O)c2ccc(OC)cc2O[C@H]1c1ccc2c(c1)OCO2` here?
A: inactive

Q: For `N/C(=N\OC(=O)COc1ccccc1Cl)c1ccc(Cl)cc1`, which activity change, positive = activation is on record?
A: inconclusive: 31.1% [activator]

Q: With `Cc1nnc(SCC(=O)Nc2nsc(-c3ccccc3)n2)s1` as the compound, how does the Potency read?
A: inactive

Q: For `O=C(Nc1nnc(SCC(=O)N2CCCCC2)s1)c1cccs1`, which Potency is on record?
A: inconclusive: 12.6 µM [activator, single point]

Q: Which Potency does the source give for `O=C(NNC(=O)c1ccco1)c1ccccc1` here?
A: inconclusive: 1.26 µM [activator, partial curve, poor fit]

Q: With `COC(=O)Oc1ccc(/C=C/C(=O)OC(C)C)cc1OC(=O)OC` as the compound, how does the Potency read?
A: inconclusive: 25.1 µM [activator, single point]

Q: Which Potency does the source give for `CC(=O)Nc1ccc(NC(=O)c2ccccc2F)cc1` here?
A: inconclusive: 14.1 µM [activator, single point]

Q: For `Nc1cc(S(N)(=O)=O)ccc1SSc1ccc(S(N)(=O)=O)cc1N`, which activity change, positive = activation is on record?
A: inactive: 2.36% [at 9.22 µM]

Q: With `Cc1ccccc1C(=O)Nc1ccc2nc(N3CCCCC3)cc(C)c2c1` as the compound, how does the Potency read?
A: inconclusive: 35.5 µM [activator, single point]

Q: For `Cc1cccc(N2CCN(C(=O)C3CCN(S(=O)(=O)c4c(C)noc4C)CC3)CC2C)c1` (stereo not given), which Potency is on record?
A: inactive

Q: Which Potency does the source give for `Cc1cc(C)c2cc(CN(CCO)C(=O)Nc3ccc(Cl)cc3)c(=O)[nH]c2c1` here?
A: inconclusive: 11.2 µM [activator, partial curve]

Q: For `C/C(=N\NC(=O)c1nonc1N)c1cccs1`, which Potency is on record?
A: inconclusive: 14.1 µM [activator, single point]

Q: Which Potency does the source give for `CC(=O)c1c(COC(=O)c2ccco2)nc2ccccc2[n+]1[O-]` here?
A: inconclusive: 0.0063 µM [activator, full curve, poor fit]

Q: Which Potency does the source give for `CCC1(C)CC(=O)c2c(ccc3oc(C(=O)Nc4ccc(C(C)=O)cc4)c(C)c23)O1` (stereo not given) here?
A: inconclusive: 35.5 µM [activator, single point]

Q: Which Potency does the source give for `CC(Oc1ccc(C(=O)NC2CCCCC2)cc1)C(=O)O` (stereo not given) here?
A: inconclusive: 12.6 µM [activator, partial curve, poor fit]

Q: For `Cc1ccc(Cn2cccc(NC(=O)NC3CCCCC3)c2=O)cc1`, which Potency is on record?
A: inactive

Q: Which Potency does the source give for `COc1ccc2[nH]c(-c3cccc(F)c3)cc(=O)c2c1` here?
A: active: 11.2 µM

Q: For `N#CCCn1ncn(-c2ccccc2)c1=S`, which Potency is on record?
A: inconclusive: 22.4 µM [activator, single point]

Q: Which Potency does the source give for `Cc1cc(Cl)ccc1NC(=S)NCc1ccccc1` here?
A: inconclusive: 35.5 µM [activator, single point]

Q: For `CC1=[N+](C)c2ccc3ccccc3c2C1(C)C`, which Potency is on record?
A: inactive

Q: With `CCCn1nnc(NC(=O)c2ccc(F)cc2)n1` as the compound, how does the Potency read?
A: inconclusive: 20 µM [activator, partial curve, poor fit]

Q: Which Potency does the source give for `C=CCOc1ccc(CNn2c(C)n[nH]c2=S)cc1OC` here?
A: inconclusive: 31.6 µM [activator, single point]
